Source: PubChem BioAssay AID1508642 (National Center for Advancing Translational Sciences (NCATS), 2021)
Out of some 43,000 compounds screened, about 200 (0.47%) were called active. Inconclusive results (about 12%) are left out. Calls come from the whole dose curve; as a rule, active = well fitted cell-killing curve with a large enough effect; inconclusive = small, poorly fitted or top-dose-only effect, or effect the other way; inactive = flat fitted curve, though single readings scatter. The list shows a part of the results.

Assay: Cell viability qHTS assay in S16 Pmp22-F2sN cells; note: nearly all actives have a fitted effect of over 65% in size
Settings: S16 Pmp22-F2sN Schwann cells (luciferase reporters placed in the Pmp22 gene) viability, CellTiter-Glo, 24 h; series mostly up to 57.5 µM; activity change, negative = cytotoxicity: at the top concentration
Summary of the method: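 Luminescence from CellTiter-Glo, read by CCD camera after a 15 min room-temperature incubation, served as the viability signal. Reporter Schwann cells (S16 Pmp22-F2sN) had been treated with pin-transferred compounds for 24 h at 37C.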
% is set by controls: 0 for no effect and ±100 for the full control effect.

SMILES | activity change, negative = cytotoxicity
COc1cccc(CNC(=O)Cn2c(=O)ccc3cc(S(=O)(=O)N4CCCC4)ccc32)c1 | inactive: 1.23%
CCN(CC)CCCNC(=O)c1cn(CC)c2ccc(S(=O)(=O)N3CCC(C)CC3)cc2c1=O | inactive: -7.63%
Cc1cc(=O)n(CC(=O)N2CCCCC2)c2c1c(C)nn2C | inactive: 7.33%
Cc1ccc(NC(=O)CN2C(=O)C(c3ccccc3)=NC23CCCCC3)cc1C | inactive: -13.9%
CCc1ccc2occ(CC(=O)N(Cc3ccccc3)C3CCS(=O)(=O)C3)c2c1 (stereo unspecified) | inactive: 1.59%
COc1ccc(-n2c(C)nc3c(cnn3-c3ccc(C)c(C)c3)c2=O)cc1Cl | inactive: 0.469%
Cc1c(Cl)cccc1NC(=O)Nc1c[nH]c(=O)[nH]c1=O | inactive: 8.84%
CC1CCCCN1C(=O)CSc1nc(-c2ccccc2)no1 (stereo unspecified) | inactive: 7.87%
COc1cc(/C=C(/C#N)c2nc(-c3cc4ccccc4oc3=O)cs2)ccc1O | inactive: 3.5%
CCOC(=O)C1=C(CN2CCC(C)CC2)NC(=O)NC1c1ccc(OC(C)C)cc1 (stereo unspecified) | inactive: -9.92%
Cc1cc(C)c(NC(=O)c2cc(C)nc3c2c(C)nn3-c2cccc(F)c2)c(C)c1 | inactive: 1.57%
Cc1cc2oc(C(=O)N(Cc3ccc(Cl)cc3)Cc3ccco3)c(C)c2cc1Cl | inactive: 0.707%
CCN(CC)C(=O)c1c(NC(=O)c2ccccc2F)sc2c1CCC(C(C)(C)C)C2 (stereo unspecified) | inactive: -5.43%
CCc1ccc(-c2nn(-c3ccc(OC)cc3)c3c2cnc2ccc(OC)cc23)cc1 | inactive: 13.2%
CCSc1ccccc1C(=O)N1CCN(c2nc3ccccc3s2)CC1 | inactive: -6.35%
Cc1ccc(C)c(NC(=O)CSc2nc3ccccc3nc2N2CCOCC2)c1 | inactive: -22.6%
CC(C)(C)OC(=O)N1CCC(c2c(C(=O)N3CCCCC3)cnn2-c2ccc(F)cc2)CC1 | inactive: -3.6%
COc1cccc(NC(=O)c2oc3ccc(S(=O)(=O)N(C)C4CCCCC4)cc3c2C)c1 | inactive: -2.07%
COC(=O)c1ccc(NC(=O)c2cnn(-c3ccc(Cl)cc3)c2C2CCN(C(=O)OC(C)(C)C)CC2)cc1 | inactive: -24.7%
COc1ccccc1C(=O)Nc1cccc(OCc2cc(=O)n3ccccc3n2)c1 | inactive: -5.98%
CCC1CCCCN1CCCNC(=O)c1cn(C)c2ccc(S(=O)(=O)N(C)C3CCCCC3)cc2c1=O (stereo unspecified) | inactive: -29.2%

SMILES | activity change, negative = cytotoxicity
COc1cccc(N2CCN(C(=O)c3cccn3-c3nnc(N4CCCCC4)s3)CC2)c1 | inactive: -7.06%
O=C(CSc1nccn1Cc1ccc2c(c1)OCO2)Nc1ccccc1F | inactive: 5.8%
COc1cc(NC(=O)CCn2nc(C)cc2C)cc(OC)c1OC | inactive: -1.01%
CCC(C)n1c(SCC(=O)Nc2ccccc2C(=O)OC)nc2ccsc2c1=O (stereo unspecified) | inactive: -14.1%
COc1cccc(CNC(=O)c2cccc(N3CCCS3(=O)=O)c2)c1 | inactive: -2.24%
CCc1ccc(NC(=O)C2CCCN(S(=O)(=O)c3ccc4c(c3)oc(=O)n4C)C2)cc1 (stereo unspecified) | inactive: -2.51%
COCCCNC(=O)CCCn1c(SCC(=O)c2ccc(Br)cc2)nc2c(sc3ccccc32)c1=O | inactive: -0.285%
Cc1ccc(C(=O)NCC(c2ccc(Cl)cc2)N2CCCCC2)cc1 (stereo unspecified) | inactive: 2.38%
CCOc1ccc(C(=O)N2CC(=O)Nc3ccc(C)cc3C2c2ccc(F)cc2)cc1OCC (stereo unspecified) | inactive: 5.19%
CCN(C(=O)CSc1nc2ccccc2c2nc(CCn3c(C)nc4ccccc43)nn12)c1cccc(C)c1 | inactive: 9.65%
COc1cc(C(=O)NC2(C(F)(F)F)C(=O)NC(C)=C2C#N)cc(OC)c1OC (stereo unspecified) | inactive: 1.88%
CCN(CC)S(=O)(=O)c1ccc2c(c1)N(CC(=O)N1CCN(c3cccc(C)c3)C(C)C1)C(=O)CO2 (stereo unspecified) | inactive: 14.6%
Cc1cccc(NC(=O)CCn2cnnn2)c1 | inactive: -0.656%
COc1ccc(-c2csc3nc(-c4ccc(Cl)cc4)oc(=O)c23)cc1 | inactive: 5%
CCc1cccc(C)c1NC(=O)CN1CCN(Cc2ccccc2Cl)S1(=O)=O | inactive: -14.3%
O=C(Nc1ccc(-c2nc3cc(Cl)ccc3o2)cc1)c1cc(Br)ccc1Cl | inactive: 2.03%
Cn1c(=O)oc2cc(S(=O)(=O)NC(CC(=O)O)c3cccc(Br)c3)ccc21 (stereo unspecified) | inactive: 7.95%
COc1ccc(NC(=O)CSc2nnc(N)s2)cc1 | inactive: 1.59%
CC(=O)c1ccc(N2CCN(C(=O)Nc3ccc(C)cc3)CC2)cc1 | inactive: -3.28%
Cc1ccc(Nc2c(-c3ccc(N4CCOCC4)cc3)nc3ccc(C)cn23)cc1 | inactive: 8.62%
COc1ccc(S(=O)(=O)N2CCC(Oc3cccc(C(F)(F)F)c3)CC2)cc1OC | inactive: 0.587%

SMILES | activity change, negative = cytotoxicity
COc1ccc(N2CC(C(=O)NCCS(=O)(=O)N3CCN(c4ccccc4)CC3)CC2=O)cc1 (stereo unspecified) | inactive: -12.8%
CCOC(=O)c1cc(-c2ccccc2)n(CCCC(=O)Nc2ccc(C)c(Cl)c2)c1C | inactive: -14%
Cc1ccc2occ(-c3cc(-c4ccccc4)nc4c3COc3ccccc3-4)c(=O)c2c1 | inactive: 2.68%
Cc1ccc(C)c(NC(=O)CSc2nc3nccnc3c(=O)n2CCc2c[nH]c3ccccc23)c1 | inactive: -1.01%
Cc1ccc(-n2c(=O)c3c(C)c(C(=O)N(C)C)sc3n(CC(=O)N(C)c3ccccc3)c2=O)cc1C | inactive: 1.5%
CCc1cccc(NC(=O)c2cnc(N3CCOCC3)c3ccccc23)c1 | inactive: -25%
CN(CC(=O)Nc1ccc(OC(F)(F)F)cc1)S(=O)(=O)c1ccc2c(c1)CCC(=O)N2 | inactive: -19.2%
Fc1ccc(N2CCN(Cc3nnc(-c4ccccc4Cl)o3)CC2)cc1 | inactive: -3.13%
CCc1cccc(C)c1Nc1c(-c2ccc(F)cc2)nc2sccn12 | inactive: -0.553%
N#Cc1nc(-c2ccc(COc3ccc(Cl)cc3)o2)oc1N1CCCCC1 | inactive: 1.64%
CCOC(=O)c1scc(-c2ccccc2)c1S(=O)(=O)Nc1ccccc1OC | inactive: 1.97%
COc1ccccc1N1CCN(c2nc3c(S(=O)(=O)c4ccccc4)nnn3c3ccc(Cl)cc23)CC1 | inactive: 0.393%
COc1ccc(CNS(=O)(=O)c2ccc(C(=O)N(C)C)s2)cc1 | inactive: -24.5%
Cc1ccc(CNc2nc(-c3ccco3)nn2C(=O)c2ccccc2[N+](=O)[O-])cc1 | inactive: -0.409%
CCOc1ccc(NC(=O)CSc2ncc(S(=O)(=O)c3ccc(F)c(C)c3)c(=O)[nH]2)cc1 | inactive: -4.44%
Cc1ccc2c(=O)c(C(=O)c3ccccc3)cn(CC(=O)NCc3ccccc3)c2n1 | inactive: -19.8%
COc1ccc(NC(=O)Cn2c(=O)n(CCCC(=O)NCc3ccccc3Cl)c(=O)c3ccccc32)c(OC)c1 | inactive: 11.9%
CCc1ccc(C(c2ccccc2)c2c(C)[nH]c3ccccc23)s1 (stereo unspecified) | inactive: 15.3%
Cc1cc(C)c(NC(=O)CSc2nc3ccccc3c3nc(-c4ccccc4)nn23)c(C)c1 | inactive: -1.5%
